Experimental data reported in publication PMC7819943, “Rice protein-binding microarrays: a tool to detect cis-acting elements near promoter regions in rice”.
Some of the results follow.

molecular target: T1, OsWOX13 (Oryza sativa, UniProt Q5QMM3 1-267); assay: protein-binding microarray (RPBM); PBS, 2% BSA, 51.3 ng/ul salmon testes DNA, 50 uM zinc acetate, 200 nM TF, 25 C, 1 h; high values mean tight binding; details: protein: recombinant; tags: N-terminal polyhistidine and DsRed monomer fusion (pET32a); label: CyDye5-dUTP incorporated in the synthesized complementary strand; 3' TTTTT single-stranded linker to array surface; dsDNA, one strand shown
T1 sequence: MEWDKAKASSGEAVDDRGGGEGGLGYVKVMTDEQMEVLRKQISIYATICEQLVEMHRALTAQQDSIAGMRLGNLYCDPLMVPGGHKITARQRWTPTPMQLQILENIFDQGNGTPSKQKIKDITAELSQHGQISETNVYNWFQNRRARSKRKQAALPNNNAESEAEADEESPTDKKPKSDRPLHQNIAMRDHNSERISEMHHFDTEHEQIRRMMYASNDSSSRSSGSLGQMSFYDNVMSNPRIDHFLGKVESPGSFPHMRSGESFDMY
Outline: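 Per-feature fluorescence intensity (arbitrary units), read on an Axon 4000B scanner, is the binding signal. Transcription factors carrying an N-terminal polyhistidine tag and DsRed fusion were expressed in E. coli BL21-CodonPlus and purified on Ni–NTA. A custom Agilent array, made double-stranded by primer extension with Cy5-dUTP and blocked with 2% BSA, was incubated with 200 nM protein in PBS, 2% BSA, salmon testes DNA and 50 µM zinc acetate at 25 °C for 1 h and then washed.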

| Sequence | binding signal |
| --- | --- |
| ATTAATGTTATTAGGGTGATTAACTTATTTTGGGATGGACCGGAGTCACCTAGTGCAG | 14500 fluorescence intensity (a.u.) |
| GAGATGATTAATTAGTAGTAATATCAACTAACATCTTTAACGGAGTCACCTAGTGCAG | 31700 fluorescence intensity (a.u.) |
| TGAGATTGAAAGTTGGGGCATAAACACAATTCTCCCTAATCGGAGTCACCTAGTGCAG | 12500 fluorescence intensity (a.u.) |
| TCAAATTCAAATTTGAATTGGGCATGTAAACTTTTGACTTCGGAGTCACCTAGTGCAG | 7650 fluorescence intensity (a.u.) |
| GGTAGTAAATTTTAGCCCTTATTGGATGAGATCAATTATCCGGAGTCACCTAGTGCAG | 4080 fluorescence intensity (a.u.) |
| GTAGAATTGATGGCCGACGGATTCTTTGCTAGGTATATACCGGAGTCACCTAGTGCAG | 12500 fluorescence intensity (a.u.) |
| TTTATCGATGATCGGTCTTGATTGCGTTTCTGTGGTTCGTCGGAGTCACCTAGTGCAG | 10400 fluorescence intensity (a.u.) |
| CTTAATTACGTGTTTAGTGCTTTACTTTGAGTTGGTTCAGCGGAGTCACCTAGTGCAG | 33400 fluorescence intensity (a.u.) |
| TTGGTGATATTGATGGAGCATGTTTTATTTGATAGAATAGCGGAGTCACCTAGTGCAG | 3390 fluorescence intensity (a.u.) |
| AAAATGACAGTTGATGTTGATTCTCTATTGTACACACCTACGGAGTCACCTAGTGCAG | 4160 fluorescence intensity (a.u.) |
| AATTAATTAATTAGTCTGTTCTTATTGCTTAGTGTACTACCGGAGTCACCTAGTGCAG | 53600 fluorescence intensity (a.u.) |
| CTGATTAGAAACAACAGGACAAGTGCGAAAGCATATTCCACGGAGTCACCTAGTGCAG | 6330 fluorescence intensity (a.u.) |
| CTTATAATTGATTTATAGTCTGTCATTGTATCTGCTCTTACGGAGTCACCTAGTGCAG | 65100 fluorescence intensity (a.u.) |
| TTTGCCAATCTATGCATTTACAGGCAAAAGATGGATCCTTCGGAGTCACCTAGTGCAG | 10300 fluorescence intensity (a.u.) |
| ATGTAATTATATTGTAACTTATATATAACTATAATGTAATCGGAGTCACCTAGTGCAG | 41800 fluorescence intensity (a.u.) |
| AAATGATAATGGAATTACGAAGCGCATGGGAAAACGACGGCGGAGTCACCTAGTGCAG | 6590 fluorescence intensity (a.u.) |
| GGCGCGCGCGGGTGATTGATTTCGCCGGCGGCGAGGGGAGCGGAGTCACCTAGTGCAG | 17200 fluorescence intensity (a.u.) |
| TACCATTGTCCATTGATTGAGGTGATCACTAGGCTGTCAACGGAGTCACCTAGTGCAG | 15700 fluorescence intensity (a.u.) |
| GACTAAATAGATGGTACACGGATGATAATGGAAGATCACACGGAGTCACCTAGTGCAG | 6660 fluorescence intensity (a.u.) |
| ACTAATAATGCAATCATGACAAACCAGCAAAGGAATAAACCGGAGTCACCTAGTGCAG | 4830 fluorescence intensity (a.u.) |
| CAATTAATGGATGCGTGATTCCTCGGTCCTGATGCAAGCACGGAGTCACCTAGTGCAG | 22700 fluorescence intensity (a.u.) |

| Sequence | binding signal |
| --- | --- |
| CAGGAAAATGATTGATATTAATACTAGCAAGAATGGCACGCGGAGTCACCTAGTGCAG | 50700 fluorescence intensity (a.u.) |
| AAAATATAATCAAAATAATTTACTTATCCATGTAATCATACGGAGTCACCTAGTGCAG | 3770 fluorescence intensity (a.u.) |
| GAATATTGATGCTCAATTTAATAGGTCCATGGAGGCTATTCGGAGTCACCTAGTGCAG | 7330 fluorescence intensity (a.u.) |
| TGCGACGCGATCAAATCAAATCATCCATCAAGCTGTAGCGCGGAGTCACCTAGTGCAG | 4030 fluorescence intensity (a.u.) |
| ACTCCAAAGTAAATGATTAGAGATCTAGGAAGCAGAGAATCGGAGTCACCTAGTGCAG | 4310 fluorescence intensity (a.u.) |
| ATTTTAATCATGATGGATACAATAATACAACGATCACTGTCGGAGTCACCTAGTGCAG | 10200 fluorescence intensity (a.u.) |
| TGTATGATGTGTTAGCGTTGATTTGGCACGCCAAGACGGACGGAGTCACCTAGTGCAG | 3540 fluorescence intensity (a.u.) |
| ACACGTAATGGATACTTTTGCCGAAGTGAACACATGCTTTCGGAGTCACCTAGTGCAG | 3140 fluorescence intensity (a.u.) |
| AATTACATATGTAATTTTAGTGTATTTACAATGTAAGTTCCGGAGTCACCTAGTGCAG | 3190 fluorescence intensity (a.u.) |
| ATTTGGTTAATTTTGCGCGTTCCTTCCTTCCTTCCTCAACCGGAGTCACCTAGTGCAG | 5630 fluorescence intensity (a.u.) |
| TTCAATCTAAATCATTCATCATTTCTCCATTATCTAACATCGGAGTCACCTAGTGCAG | 4680 fluorescence intensity (a.u.) |
| TAACTAATTAGTTAACTAATCGTCAATGTCACTAGCTTCTCGGAGTCACCTAGTGCAG | 45100 fluorescence intensity (a.u.) |
| CAAATCAAATTACCACATAAGCACCACGTCAATGCCACGTCGGAGTCACCTAGTGCAG | 6610 fluorescence intensity (a.u.) |
| TAACAAATTTAATTGTAAACATACCTATAATAATTTGAGTCGGAGTCACCTAGTGCAG | 21300 fluorescence intensity (a.u.) |
| ATCCTTGATTATCTCTACCTGAATAATACAGAGAGATACCCGGAGTCACCTAGTGCAG | 23000 fluorescence intensity (a.u.) |
| CAACAAATTGAAACCCACGCACTTCACTTCGCTCACCACACGGAGTCACCTAGTGCAG | 23200 fluorescence intensity (a.u.) |
| ATCCAATTATCCTGTCGGACCCCGTCCTCTGAAAACAAATCGGAGTCACCTAGTGCAG | 5120 fluorescence intensity (a.u.) |
| GCTATATTGGTTAACATCAGTGATTCCTGTGTCAATTAGCCGGAGTCACCTAGTGCAG | 4590 fluorescence intensity (a.u.) |
| CGCTTATGATAGGCATCACCGACATTCGCTACTTCACCGACGGAGTCACCTAGTGCAG | 4980 fluorescence intensity (a.u.) |
| TAATCTCTTGATGATTTGCTGTAACTACATTCCCTTGATACGGAGTCACCTAGTGCAG | 4820 fluorescence intensity (a.u.) |
| TAGTGATGTGCTGTTTACGGTAATTTCTTCAATCTCAAGACGGAGTCACCTAGTGCAG | 4160 fluorescence intensity (a.u.) |
